The values below come from article PMC4336329 (PLoS ONE, 2015).

Structures are written as SMILES. Hit rate of the full screen: of about 310,000 compounds, about 2,200 (0.71%) showed an effect of 50% or more. Effects have a minus sign here. Some of the results follow.

In this assay the target is human ether-à-go-go-related gene (hERG) potassium channel (human, UniProt Q12809). Nature of the assay: primary screen, population patch clamp on CHO cells stably expressing hERG.
Chain of human ether-à-go-go-related gene (hERG) potassium channel (Q12809 whole entry, looked up): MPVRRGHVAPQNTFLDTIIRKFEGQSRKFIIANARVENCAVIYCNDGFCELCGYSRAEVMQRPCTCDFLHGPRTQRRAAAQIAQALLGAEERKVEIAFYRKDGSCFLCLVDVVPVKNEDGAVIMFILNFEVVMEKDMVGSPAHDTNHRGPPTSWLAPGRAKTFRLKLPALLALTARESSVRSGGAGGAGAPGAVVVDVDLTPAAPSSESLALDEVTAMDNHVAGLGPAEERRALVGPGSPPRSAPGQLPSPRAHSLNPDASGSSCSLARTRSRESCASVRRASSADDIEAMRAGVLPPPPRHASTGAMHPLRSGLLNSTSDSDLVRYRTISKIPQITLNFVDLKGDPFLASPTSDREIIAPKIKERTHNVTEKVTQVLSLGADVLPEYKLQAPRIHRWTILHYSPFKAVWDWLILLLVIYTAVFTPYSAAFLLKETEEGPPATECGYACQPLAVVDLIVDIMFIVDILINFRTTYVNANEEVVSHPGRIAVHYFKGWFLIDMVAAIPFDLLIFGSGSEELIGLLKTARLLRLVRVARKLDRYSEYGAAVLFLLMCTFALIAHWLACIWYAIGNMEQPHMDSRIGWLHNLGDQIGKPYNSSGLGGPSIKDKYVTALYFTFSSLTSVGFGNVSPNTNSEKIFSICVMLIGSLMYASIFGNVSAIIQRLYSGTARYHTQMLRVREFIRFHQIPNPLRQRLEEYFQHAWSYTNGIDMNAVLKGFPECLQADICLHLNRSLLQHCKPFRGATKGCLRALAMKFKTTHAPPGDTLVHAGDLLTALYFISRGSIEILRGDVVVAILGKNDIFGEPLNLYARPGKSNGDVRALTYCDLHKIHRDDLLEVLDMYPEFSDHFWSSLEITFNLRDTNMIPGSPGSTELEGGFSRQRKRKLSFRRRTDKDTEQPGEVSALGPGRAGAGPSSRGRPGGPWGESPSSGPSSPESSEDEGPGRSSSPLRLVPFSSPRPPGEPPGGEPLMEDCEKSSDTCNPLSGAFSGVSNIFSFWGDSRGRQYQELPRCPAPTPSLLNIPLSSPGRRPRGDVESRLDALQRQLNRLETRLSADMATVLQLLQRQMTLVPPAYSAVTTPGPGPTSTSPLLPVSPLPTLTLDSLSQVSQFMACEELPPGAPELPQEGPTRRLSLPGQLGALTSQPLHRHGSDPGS
For `Cc1cc(Cc2cc(C)c(N)cc2C)c(C)cc1N`, the “hERG current change (%, negative = inhibition) at 1uM” value is 8.22%.

`CC(C)NS(=O)(=O)c1ccc(OCC(=O)NCc2ccc3c(c2)OCO3)c(Cl)c1`: the “hERG current change (%, negative = inhibition) at 1uM” value is 6.8%.

For the compound `O=C(COC(=O)c1ccccc1[N+](=O)[O-])Nc1nnc(-c2ccccc2)o1`, the “hERG current change (%, negative = inhibition) at 1uM” value is given as 17.3%.

As for `CC(C)(O)[C@H](O)COc1c2occc2cc2ccc(=O)oc12`, the “hERG current change (%, negative = inhibition) at 1uM” value is recorded as 12.2%.

For the compound `CN(CC(=O)Nc1ccccc1Br)C(=O)CN1CCN(Cc2ccc(Cl)cc2)CC1`, the “hERG current change (%, negative = inhibition) at 1uM” value is -33.1%.

`Cc1cccc(C)c1NC(=O)CSc1ccc([N+](=O)[O-])cn1`: the “hERG current change (%, negative = inhibition) at 1uM” value came to 8.3%.

As for `CCOC(=O)C1CN(S(=O)(=O)c2ccc(C)cc2)CCN1S(=O)(=O)c1ccc(C)cc1` (stereo not drawn), the “hERG current change (%, negative = inhibition) at 1uM” value is reported as 4.75%.

For the compound `CCOc1ccc(CCNC(=O)c2cc3sc(Cl)cc3n2C)cc1OCC`, the “hERG current change (%, negative = inhibition) at 1uM” value is on record as 13.7%.

Take `C=CCn1c(SCC(=O)Nc2ccc(C(=O)OCC)cc2)nnc1-c1sc(N)nc1C`: the “hERG current change (%, negative = inhibition) at 1uM” value was -3.7%.

`COc1ccc(C(=O)COC(=O)c2ccco2)cc1`: the “hERG current change (%, negative = inhibition) at 1uM” value is given as 8.17%.

For the compound `Cc1[nH]c2ccccc2c1/C=C(\C#N)C(=O)NC1CC1`, the “hERG current change (%, negative = inhibition) at 1uM” value is 6.42%.

In the case of `COc1cc(CCN2C(=O)c3cccc4cccc(c34)C2=O)c(S(=O)(=O)NCCO)cc1OC`, the “hERG current change (%, negative = inhibition) at 1uM” value was found to be 12.5%.

As to `Cc1cc(C)n(/N=C/c2c[nH]c3ccccc23)c(=O)c1`, the “hERG current change (%, negative = inhibition) at 1uM” value was determined as 12%.

Turning to `CCc1ccc(NSc2ccccc2[N+](=O)[O-])cc1`, the “hERG current change (%, negative = inhibition) at 1uM” value was found to be 14.4%.

In the case of `Cc1cccc2nc(CSc3nc4ccccc4[nH]3)cn12`, the “hERG current change (%, negative = inhibition) at 1uM” value is reported as -0.486%.

`Cc1ccc(NC(=O)CC(=O)NCCN2CCOCC2)cc1`: the “hERG current change (%, negative = inhibition) at 1uM” value is on record as 8.48%.

Consider `Cc1cc(NC(=O)c2c(F)cccc2Cl)no1`, for which the “hERG current change (%, negative = inhibition) at 1uM” value came out at 7.96%.

`COC(=O)c1ccn(CSc2cc(Cl)ccc2Cl)n1`: the “hERG current change (%, negative = inhibition) at 1uM” value was found to be 4.98%.

Consider `O=C(CCNC(=O)Cn1cnc2ccccc2c1=O)NCC1CCCO1` (stereo not drawn), for which the “hERG current change (%, negative = inhibition) at 1uM” value is on record as 1.44%.

Turning to `Cc1cc(C(=O)CSc2nc3ccccc3n2C)c(C)n1C`, the “hERG current change (%, negative = inhibition) at 1uM” value came out at 12.9%.

In the case of `CSc1nnc(-c2cccn(Cc3ccccc3)c2=O)o1`, the “hERG current change (%, negative = inhibition) at 1uM” value stood at 10.5%.

For the compound `COCCn1c(C(F)(F)F)ccc(NC(=O)c2ccccc2)c1=O`, the “hERG current change (%, negative = inhibition) at 1uM” value amounted to 3.83%.

On to `C=CCn1c(O)c(N=NC(=O)CNC(=O)c2cccs2)c2ccccc21`, for which the “hERG current change (%, negative = inhibition) at 1uM” value came to 0.478%.

As for `COc1cccc(CN(C)C(=O)Nc2cccc(C(F)(F)F)c2)c1OC`, the “hERG current change (%, negative = inhibition) at 1uM” value came to 9.71%.

Regarding `C=CCOc1cccc(C(=O)N2CCCC(Nc3ccc4c(c3)OCCO4)C2)c1` (stereo not drawn), the “hERG current change (%, negative = inhibition) at 1uM” value is -1.27%.

In the case of `O=C(NNC(=O)c1cc2c(s1)CCCC2)c1ccccc1`, the “hERG current change (%, negative = inhibition) at 1uM” value is recorded as 5.99%.

In the case of `Cc1ccc(S(=O)(=O)N2CCOCC2)cc1C(=O)NCC1CCCCC1`, the “hERG current change (%, negative = inhibition) at 1uM” value amounted to 2.14%.

Consider `COc1ccc(C(C)NC(=S)NCc2ccc(F)cc2)cc1` (stereo not drawn), for which the “hERG current change (%, negative = inhibition) at 1uM” value stood at 12.4%.

For the compound `CCOc1ccc(-n2c(O)c(/C=N/NC(=O)C3COc4ccccc4O3)c3ccccc3c2=O)cc1` (stereo not drawn), the “hERG current change (%, negative = inhibition) at 1uM” value came out at 8.03%.

On to `Cc1cccc(NC(=S)N(CCN(C)C)Cc2cccs2)c1`, for which the “hERG current change (%, negative = inhibition) at 1uM” value turned out to be 5.82%.

For the compound `CC(C)(C)SCCNS(=O)(=O)c1ccc2ccccc2c1`, the “hERG current change (%, negative = inhibition) at 1uM” value is recorded as -1.67%.

On to `O=C(COc1ccccc1Cl)NNC(=O)c1ccc(-n2cncn2)c([N+](=O)[O-])c1`, for which the “hERG current change (%, negative = inhibition) at 1uM” value is recorded as 19%.

For the compound `C/C(=N\NC(=O)COc1ccc(C(C)(C)C)cc1)c1ccccc1`, the “hERG current change (%, negative = inhibition) at 1uM” value amounted to 10.2%.

Consider `c1ccc2c(c1)Cc1cc(CN3CCOCC3)ccc1-2`, for which the “hERG current change (%, negative = inhibition) at 1uM” value came out at 12.7%.

`Cc1ccc(Nc2c([N+](=O)[O-])c(=O)n(C)c3ccccc23)cc1C`: the “hERG current change (%, negative = inhibition) at 1uM” value worked out at 1.7%.

For `Cc1cc(C)c(NC(=O)CN(C)CC(=O)N(C)CC(=O)Nc2c(Cl)cccc2Cl)c(C)c1`, the “hERG current change (%, negative = inhibition) at 1uM” value turned out to be 11.1%.

On to `O=C(NCc1ccccn1)C1CCCN(S(=O)(=O)c2cccc3nsnc23)C1` (stereo not drawn), for which the “hERG current change (%, negative = inhibition) at 1uM” value was determined as 9.24%.

Regarding `O=[N+]([O-])c1ccc(C2C3C(c4ccccc4)=NC4(CCCC4)N32)cc1` (stereo not drawn), the “hERG current change (%, negative = inhibition) at 1uM” value is recorded as -0.499%.

For `CCOc1c(Cl)cc(Cl)cc1CNCCNCCO.Cl`, the “hERG current change (%, negative = inhibition) at 1uM” value is listed as 11.2%.

Turning to `COC(=O)c1ccccc1N(C)S(C)(=O)=O`, the “hERG current change (%, negative = inhibition) at 1uM” value is 10.8%.

As for `Cc1cccc(CSCCNC(=O)CN(c2cc(C)cc(C)c2)S(C)(=O)=O)c1`, the “hERG current change (%, negative = inhibition) at 1uM” value worked out at 5.45%.

As to `CC1CCCCN1S(=O)(=O)c1cccc2cccnc12` (stereo not drawn), the “hERG current change (%, negative = inhibition) at 1uM” value is -0.0239%.

For `O=C(Nc1ccc(CN2CCS(=O)(=O)CC2)cc1)c1ccc(F)cc1`, the “hERG current change (%, negative = inhibition) at 1uM” value is listed as 8.38%.

`Cc1cccc(C)c1N(C(=O)c1ccco1)C(C(=O)NC1CCCC1)c1ccncc1` (stereo not drawn): the “hERG current change (%, negative = inhibition) at 1uM” value amounted to 4.89%.

`COc1cc2c(cc1OC)C(c1ccccc1)=NCC2`: the “hERG current change (%, negative = inhibition) at 1uM” value is on record as 2.79%.
